According to PubChem BioAssay AID1745853 (National Center for Advancing Translational Sciences (NCATS), 2022):
Some of the results follow. Further columns of the screen follow, without active or inactive calls.

Tests used:
Assay in all cases: Primary Screen for Target Class Profiling of Small Molecule Inhibitors of Methyltransferases
[1] = biological target: Glycine N-methyltransferase (Homo sapiens) (UniProt Q14749); details: purified enzyme, MTase-Glo SAH luminescence; measured here: GNMT inhibition; at 40 µM; stronger effect = lower value
Method in brief: (§1)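 Each enzyme was reacted with SAM and its substrate, with compounds tested once at 40 uM; SAH formed was read by MTase-Glo luminescence.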

[2] = biological target: Guanidinoacetate N-methyltransferase (Homo sapiens) (UniProt Q14353); details: purified enzyme, MTase-Glo SAH luminescence; measured here: GAMT inhibition; at 40 µM; stronger effect = lower value
Method in brief: as §1

[3] = biological target: Histamine N-methyltransferase (Homo sapiens) (UniProt P50135); details: purified enzyme, MTase-Glo SAH luminescence; measured here: HNMT inhibition; at 40 µM; stronger effect = lower value
Method in brief: as §1

[4] = biological target: Nicotinamide N-methyltransferase (Homo sapiens) (UniProt P40261); details: purified enzyme, MTase-Glo SAH luminescence; measured here: NNMT inhibition; at 40 µM; stronger effect = lower value
Method in brief: as §1

[5] = biological target: Phenylethanolamine N-methyltransferase (Homo sapiens) (UniProt P11086); details: purified enzyme, MTase-Glo SAH luminescence; measured here: PNMT inhibition; at 40 µM; stronger effect = lower value
Method in brief: as §1
% is scaled to controls: 0 for no effect and ±100 for the full control effect.

Row | SMILES | activity change, negative = inhibition [1] [%] | activity change, negative = inhibition [2] [%] | activity change, negative = inhibition [3] [%] | activity change, negative = inhibition [4] [%] | activity change, negative = inhibition [5] [%]
1 | CC12CC(c3ccoc3)OC(=O)C1CCC1(C)C2CCC(O)C1(C)O (centres undefined) | 0 | -3.39 | -5.06 | -15.7 | -2.31
2 | COc1ccccc1CNC(=O)C1(C)Cn2c(cc3ccccc32)C(=O)N1CCc1ccc(SC)cc1 (centres undefined) | 2.15 | 0 | 5.18 | 6.63 | -2.19
3 | COc1ccc(Cc2ccc(NC(N)=O)cc2)cc1-c1cccc(Cl)c1 | 2.29 | 8.15 | 1.87 | 2.67 | 9.11
4 | C[S+](=O)([O-])N1Cc2ccccc2CC2(CCCN(Cc3ccccn3)C2)C1 (centres undefined) | -5.14 | -3.84 | -2.6 | -8.45 | -2.15
5 | C[C@H]1[C@@H]2[C@@H](O)C([C@H](C)C(=O)NC3CCCCC3)CC[C@@]2(C)CC[C@@H]1NC(=O)C1CCCCC1 (some centres undefined) | -2.47 | -12.4 | -2.9 | -15 | -27
6 | COc1cccc(Nc2nc3c(S(=O)(=O)c4ccc(C)cc4)nnn3c3ccccc23)c1 | 2.59 | 1.14 | 8.49 | 8.35 | 1.54
7 | CCC1CCCCN1CCCN1C(=O)c2cc3sccc3n2CC1(C)C(=O)NC1CCCCCC1 (centres undefined) | 4.42 | 1.19 | -9.12 | -5.87 | 3.59
8 | Cc1nc(C)c(C(=O)N2CCCC(COc3ccccc3C(=O)N3CCCC3)C2)s1 (centres undefined) | -0.649 | 2.33 | 1.16 | -6.26 | -11.7
9 | CN(C)S(=O)(=O)N1CCc2nn(C)c(=O)n2CC1 | -6.82 | -8.14 | -3.9 | -8.61 | 1.41
10 | COc1ccc(CN(C)C2CCCN(CCc3ccccc3)C2)c(OC)c1OC (centres undefined) | -0.927 | -7.85 | -3.11 | -5.81 | -2.02
11 | C=C1C(=O)O[C@H]2[C@H]1[C@@H](OC(=O)C(C)CO)C[C@@]1(C)[C@H](O)CCC(=O)[C@H]21 (some centres undefined) | 0 | -1.54 | 2.63 | -12.8 | 3.15
12 | O=C1CC2(CCN(C(=O)c3ccccn3)C2)Nc2ccccc2N1 (centres undefined) | -2.23 | -11.4 | 0.096 | -18.7 | -5.43
13 | CCC1c2ccc(C)n2CCN1C(=O)Nc1cccc(Cl)c1C (centres undefined) | -1.75 | 4.75 | -2.23 | -6.99 | -4.49
14 | Cn1c(CNC(=O)CC2CCOC3(CCN(S(C)(=O)=O)CC3)C2)nc2ccccc21 (centres undefined) | -3.38 | -3.4 | -2.78 | -7.56 | -2.7
15 | COc1ccc2c(c1)CCC1C2CC[C@@]2(C)C1CC[C@@H]2NCCCCCCN1C(=O)C=CC1=O (some centres undefined) | 0.052 | 8.77 | 3.9 | -1.1 | 7.41
16 | NCC(=O)Nc1ccc(-n2nc(C(F)(F)F)cc2-c2ccc3c(ccc4ccccc43)c2)cc1 | 5.7 | 7.07 | 10.3 | -16 | 6.22
17 | CC(C)OCCCN1C(=O)c2cc3ccccc3n2CC1(C)C(=O)NC1CCCCC1 (centres undefined) | -0.349 | 1.2 | 3.73 | 6.97 | 1.38
18 | CCNC(=O)[C@@H]1C[C@H](NC(=O)c2ccc(=O)n(C)c2)CN1Cc1ccoc1 | -3.74 | -3.34 | 0.169 | -3.7 | -1.12
19 | CCC(C)NC(=O)c1ccc2c(=O)n(CC(C)C)c3nn(CC(=O)Nc4ccccc4)c(=O)n3c2c1 (centres undefined) | 3.6 | 0 | 6.13 | 1.26 | 5.07
20 | Cc1ccccc1N1C(=O)c2cc3sccc3n2CC1(C)C(=O)NC1CCC(C)CC1 (centres undefined) | 1.07 | 0 | 2.1 | 1.02 | 1.55
21 | Cn1nc2n(Cc3ccccc3)c(=O)c3ccc(C(=O)NC4CCCCC4)cc3n2c1=O | -4.91 | -1.45 | 2.23 | -11.8 | -6.82

Row | SMILES | activity change, negative = inhibition [1] [%] | activity change, negative = inhibition [2] [%] | activity change, negative = inhibition [3] [%] | activity change, negative = inhibition [4] [%] | activity change, negative = inhibition [5] [%]
22 | Cc1noc2c(NCCc3ccccn3)cc(-c3ccccn3)nc12 | -32.8 | -11.8 | -13.4 | -26.7 | -27.2
23 | Cn1c(=O)c2[nH]c(C3CCCC3)nc2n(C)c1=O | -12.2 | -1.61 | -3.06 | -13.3 | -3.71
24 | O=C(O)c1cc2c(s1)CN(C1CCCC1)C2 | -0.246 | -0.411 | 2.39 | -2.49 | 10.8
25 | CCOCCCNc1nc2c(S(=O)(=O)c3ccc(CC)cc3)nnn2c2ccc(Cl)cc12 | -10.1 | 0 | -0.691 | -3.72 | -2.86
26 | Nc1nc(=O)n([C@H]2C[C@H](O)[C@@H](CO)O2)cc1F | 11.7 |  | 16.4 | -8.29 | -11.8
27 | CNC(=O)c1ccc(-c2cnc3ncc(Cc4ccc5ncccc5c4)n3n2)cc1F | -30.8 | -0.083 | -12.1 | -27.7 | -11.9
28 | Cc1ccc(N2C(=O)CSc3c(c4ccccc4n3C)C2C(=O)NCCC(C)C)cc1C (centres undefined) | 0.111 | 0.814 | -3.6 | -6.68 | -3.7
29 | CCC(C)NC(=O)c1ccc2c(=O)n(CCC(C)C)c3nn(C)c(=O)n3c2c1 (centres undefined) | -6.11 | 0 | 5.27 | -6 | -8.42
30 | CC1(C(=O)NC2CCCC2)Cn2c(nc3ccccc32)C(=O)N1CCc1ccccc1 (centres undefined) | -1.3 | 0 | -0.59 | -8.78 | -4.29
31 | Cc1ccccc1C(=O)N[C@H]1[C@H](O)[C@H](O)C[C@@H]1c1ccc(N2CCOCC2)nc1 | -6.26 | -9.39 | -3.53 | -7.44 | -0.891
32 | C=C[C@]1(C)C[C@H](O)[C@@H]2[C@H](OC(=O)[C@@H]2C)C1/C(C)=C/O[C@@H]1O[C@H](CO)[C@@H](O)[C@H](O)[C@H]1O (some centres undefined) | -1.29 | -3.73 | 4.14 | -12.5 | -4.84
33 | NS(=O)(=O)c1ccc(C(=O)NC(Cc2ccncc2)C2CC(O)C2)cc1 (centres undefined) | -0.276 | -2.71 | 2.24 | -0.037 | -1.34
34 | Cc1ccccc1CCN1C(=O)c2cc3ccccc3n2CC1(C)C(=O)NCc1ccccc1 (centres undefined) | 2.4 | 0 | 5.43 | 6.34 | 0.085
35 | C[C@H]1[C@@H](OC(=O)CCC(=O)O)O[C@@H]2O[C@@]3(C)CC[C@@H]4[C@H](C)CC[C@@H]1[C@@]24OO3 | 5.74 | 4.72 | 10.3 | -5.51 | 5.05
36 | CC(C)COCC(CN(Cc1ccccc1)c1ccccc1)N1CCCC1 (centres undefined) | -9.31 | 0.412 | -4.86 | -9.55 | -1.21
37 | COc1cc(NC(=O)CCC2CCCN(Cc3nc(C(C)C)cs3)C2)cc(OC)c1 (centres undefined) | -3.7 | -6.93 | -2.37 | -25.6 | -2.2
38 | CC1(C(=O)NC2CCCCCCC2)Cn2c(cc3sccc32)C(=O)N1CCCN1CCOCC1 (centres undefined) | 2.23 | 0.335 | 5 | -9.39 | 2.21
39 | Cc1c(CN2CCN(C(=O)C(C)O)CC2)sc2c(N3CCOCC3)nc(-c3cnc(N)nc3)nc12 (centres undefined) | -47.4 |  | -0.019 |  | 
40 | COc1cccc(S(=O)(=O)N2CCC(n3c(C)cnc3C3CC3)CC2)c1 | -5.79 | 5.33 | -10.6 | -7.83 | -0.207
41 | COc1ccc(-c2nnn3c2nc(NCc2ccc(C)cc2)c2ccccc23)cc1 | -0.841 | 1.24 | -0.059 | 1.1 | -1.26
42 | CCN(Cc1ccccc1)C(=O)Cn1c(=O)n(C)c2cnc(-c3ccccc3)nc21 | -9.6 | 2.24 | 9.75 | -25.5 | 4.65

Row | SMILES | activity change, negative = inhibition [1] [%] | activity change, negative = inhibition [2] [%] | activity change, negative = inhibition [3] [%] | activity change, negative = inhibition [4] [%] | activity change, negative = inhibition [5] [%]
43 | CC1(C(=O)NCc2ccccc2)Cn2cnc(C(=O)NCCc3ccccc3)c2C(=O)N1C1CC1 (centres undefined) | -3.81 | 0.606 | -4.14 | -1.18 | 0.079
44 | CC1(C(=O)NC2CCCC2)Cn2c(ccc2-c2ccccc2)C(=O)N1CCc1cccs1 (centres undefined) | 0.369 | 0.053 | 2.71 | -1.73 | -1.59
45 | O=C(c1ccc(Nc2nn3c(=O)c4ccccc4nc3s2)cc1)N1CCN(C2CCCCC2)CC1 | -10.2 | 0 | -15.9 | -14.1 | -0.032
46 | CCC1c2ccc(C)n2CCN1C(=O)Nc1cc(C)ccc1OC (centres undefined) | 1.07 | 0 | 2.49 | -0.75 | 1.69
47 | Cc1ccc(-n2nc(C(C)(C)C)cc2NC(=O)Nc2cc(COc3cccnc3)[nH]n2)cc1 | -5.22 | 0.118 | 2.44 | -19.6 | -1.47
48 | NC(=O)c1ncn([C@@H]2O[C@H](CO)[C@@H](O)[C@H]2O)n1 | 4.39 | 8.24 | 5.88 | -5.63 | -2.95
49 | CC(C)c1ccc(N2C(=O)c3cc(-c4ccco4)nn3CC2(C)C(=O)NC2CCCCCC2)cc1 (centres undefined) | -6.01 | 4.01 | 1.9 | -13.6 | -4.58
50 | CN1CCN([C@H]2CCN(C(=O)COCc3ccccc3)C[C@H]2CCCO)CC1 | 1.65 | 1.28 | 1.21 | -3.07 | -10.5
51 | CC(=O)N1CCN(Cc2ccc([C@H](C)Nc3nccc(N4C(=O)OC[C@@H]4C(C)C)n3)cc2)CC1 | 4.02 | 4.47 | 12.1 | -16.5 | 3.65
52 | CC(C)c1ccc(-n2cc(CN3CCCC(O)(CN(C)C)C3)cn2)cc1 (centres undefined) | -7 | -6.71 | -16.1 | -10.1 | -3.79
53 | Cc1ccc2c(cnn2C(=O)CCC(=O)N2CCN(c3ccccc3)CC2)c1 | -2.29 | 0 | 2.85 | -7.54 | 0.452
54 | Cc1nc(CN2Cc3nc(OCc4ccc(F)cc4)ccc3OCC2=O)cs1 | -13.1 | -3.03 | -4.23 | -9.95 | 0.161
55 | CCN1CCN(c2nc3c(S(=O)(=O)c4ccccc4)nnn3c3ccccc23)CC1 | 6.94 | 3.9 | -9.07 | 7.72 | 2.92
56 | Cc1ccc(Cn2nc3n(Cc4ccc(F)cc4)c(=O)c4ccccc4n3c2=O)cc1 | 4.71 | 0.284 | 2.7 | 4.58 | 3.84
57 | Cc1ccccc1C(=O)N1CCC(C(=O)N2CCC(c3nc4ncccc4[nH]3)CC2)C1 (centres undefined) | -3.95 | -6.31 | -3.45 | -9.57 | -6.94
58 | O=C1CCCC2=C1C(c1ccncc1Br)N=C(Nc1nc3ccccc3o1)N2 (centres undefined) |  | -0.996 |  | -30.1 | -14.4
59 | CN(C)c1ccc2ncc(Nc3cc(F)cc(N4CCOCC4)c3)n2n1 | -10.6 | -8.37 | -13.2 | -18.6 | -8.77
60 | CC1(C(=O)NCc2ccccc2Cl)Cn2cnc(C(=O)NCc3ccc(F)cc3)c2C(=O)N1C1CC1 (centres undefined) | 1.56 | 1.85 | 10.2 | -0.568 | 9.97
61 | Cc1cnc(C2CCOCC2)n1C1CCCN(S(=O)(=O)c2ccccc2)C1 (centres undefined) | -6.23 | 4.54 | 2.94 | -4.44 | 15.4
